The RNAGym collection of RNA variant scans (doi:10.7554/elife.90254)
The source gives no read counts; variants with many changes may rest on few reads.

B1: LINE1-mini (parent)
chain: GGCAGAGCUCAACACAGCGUGGCAAAGUGGCUGUGGCUAGACUGCC

Variants of: B1
Assay: self-cleavage, relative activity (ratio to wild type); higher = more cleavage; in vitro, sequencing; the parent is a self-cleaving ribozyme

**Q.** With GGCAGAGCUCAACACAGCAUCGCAAAGUGGCUGGGGCUAGACUGCC as the variant, how does the self-cleavage read?
**A.** Its self-cleavage is 0.13.

**Q.** Which self-cleavage does the source give for GGCAGAGCUCAACACAGCAUUGCAAAGUGGCUGUGGGUAGACUGCC here?
**A.** Its self-cleavage is 0.02.

**Q.** With GGCAGAGCUCAACACAGCAUUGCAAAGUGGCUGAGGCUAGACUGCC as the variant, how does the self-cleavage read?
**A.** Its self-cleavage is 0.1.

**Q.** With GGCAGAGCUCAACACAGCAUGACGAAGUGGCUGUGGCCAGACUGCC as the variant, how does the self-cleavage read?
**A.** Its self-cleavage is 0.35.

**Q.** With GGCAGAGCUCAACACAGCAUGACAAAGUGGCUGUGGCUAGAUUGGC as the variant, how does the self-cleavage read?
**A.** The self-cleavage was 0.46.

**Q.** With GGCAGAGCUCAACACAGCAUGCCAAUGUGGCUGGGGCUAGACUGCC as the variant, how does the self-cleavage read?
**A.** The self-cleavage was 0.12.

**Q.** Which self-cleavage does the source give for GGCAGAGCUCAACACAGCAUGCCAAAGUGGUUGUGGAUAGACUGCC here?
**A.** Its self-cleavage is 0.06.

**Q.** Which self-cleavage does the source give for GGCAGAGCUCAACACAGCAUGCCAAAGCGGCUGUGGCUAGACUGCC here?
**A.** The self-cleavage was 0.29.

**Q.** Which self-cleavage does the source give for GGCAGAGCUCAACACAGCAUGUCAAAGUGGCUGUGGCUUGACUGCC here?
**A.** Its self-cleavage is 0.58.

**Q.** With GGCAGAGCUCAACACAGCAUGUCAAAGUGGCUGUGGCUAGCCUGCC as the variant, how does the self-cleavage read?
**A.** Its self-cleavage is 0.02.

**Q.** With GGCAGAGCUCAACACAGCAUGUCAAAGUGGAUGUGGCUACACUGCC as the variant, how does the self-cleavage read?
**A.** Its self-cleavage is 0.03.

**Q.** Which self-cleavage does the source give for GGCAGAGCUCAACACAGCAUGUCAAAGUAGUUGGGGCUAGACUGCC here?
**A.** Its self-cleavage is 0.02.

**Q.** For GGCAGAGCUCAACACAGCAUGUCAAAGUGGCUGUCGCUAGACUGUC, which self-cleavage is on record?
**A.** The self-cleavage was 0.31.

**Q.** Which self-cleavage does the source give for GGCAGAGCUCAACACAGCAUGGCAAACUGGAUGUAGCUAGACUGCC here?
**A.** Its self-cleavage is 0.02.

**Q.** With GGCAGAGCUCAACACAGCAUGGCAAACUGGCUGUGGAUAGACUGCA as the variant, how does the self-cleavage read?
**A.** Its self-cleavage is 0.01.

**Q.** Which self-cleavage does the source give for GGCAGAGCUCAACACAGCAUGGCAAACUGGCUGUUGCUAGACUGCC here?
**A.** Its self-cleavage is 0.07.

**Q.** Which self-cleavage does the source give for GGCAGAGCUCAACACAGCAUGGCAAAUUGGCUGUGGCUCAACUGCU here?
**A.** The self-cleavage was 0.02.

**Q.** With GGCAGAGCUCAACACAGCAUGGCAAAUUCGCUGUGGCUCGCCAGCC as the variant, how does the self-cleavage read?
**A.** The self-cleavage was 0.05.

**Q.** For GGCAGAGCUCAACACAGCAUGGCAAAUUGACUCUGGCUAGACUGCC, which self-cleavage is on record?
**A.** The self-cleavage was 0.06.

**Q.** For GGCAGAGCUCAACACAGCAUGGCAAAUUGCCUGUGGCUAGACUGCC, which self-cleavage is on record?
**A.** Its self-cleavage is 0.35.

**Q.** Which self-cleavage does the source give for GGCAGAGCUCAACACAGCAUGGCAAAUUGGCUUUGGCUAGACUGUC here?
**A.** The self-cleavage was 0.06.

**Q.** With GGCAGAGCUCAACACAGCAUGGCAAAGUAGUUGUGGCUAGACUGCC as the variant, how does the self-cleavage read?
**A.** The self-cleavage was 0.49.

**Q.** Which self-cleavage does the source give for GGCAGAGCUCAACACAGCAUGGCAAAGUAGUUGUGGCCAGACUCCC here?
**A.** Its self-cleavage is 0.01.

**Q.** Which self-cleavage does the source give for GGCAGAGCUCAACACAGCAUGGCAAAGUAGCUGUGGUUAGACUGCC here?
**A.** Its self-cleavage is 0.06.

**Q.** Which self-cleavage does the source give for GGCAGAGCUCAACACAGCAUGGCAAAGUUGCUGAGGCUAGACUGCC here?
**A.** The self-cleavage was 1.2.

**Q.** With GGCAGAGCUCAACACAGCAUGGCAAAGUGACUGUGGCUAAUAUGCC as the variant, how does the self-cleavage read?
**A.** Its self-cleavage is 0.18.

**Q.** Which self-cleavage does the source give for GGCAGAGCUCAACACAGCAUGGCAAAGUGACUGUGGCUACACCGCC here?
**A.** The self-cleavage was 0.02.

**Q.** With GGCAGAGCUCAACACAGCAUGGCAAAGUGCCCGUGGCUAGACCGCC as the variant, how does the self-cleavage read?
**A.** The self-cleavage was 0.05.

**Q.** For GGCAGAGCUCAACACAGCAUGGCAAAGUGUCUCUGGCUAGACUGCC, which self-cleavage is on record?
**A.** Its self-cleavage is 0.11.

**Q.** With GGCAGAGCUCAACACAGCAUGGCAAAGUGUCUGUGGCAACACUGCC as the variant, how does the self-cleavage read?
**A.** The self-cleavage was 0.22.

**Q.** For GGCAGAGCUCAACACAGCAUGGCAAAGUGUCUGUGGCUAGACAUCC, which self-cleavage is on record?
**A.** Its self-cleavage is 0.19.

**Q.** With GGCAGAGCUCAACACAGCAUGGCAAAGUGGCUCUGGCUAGACUCCC as the variant, how does the self-cleavage read?
**A.** Its self-cleavage is 0.06.

**Q.** For GGCAGAGCUCAACACAGCAUGGCAAAGUGGCUUUGGCUAUACUGCC, which self-cleavage is on record?
**A.** Its self-cleavage is 0.1.

**Q.** With GGCAGAGCUCAACACAGCAUGGCAAAGUGGCUGUACCUAGACUACG as the variant, how does the self-cleavage read?
**A.** Its self-cleavage is 0.04.

**Q.** For GGCAGAGCUCAACACAGCAUGGCAAAGUGGCUGUCGCUAGACUGCA, which self-cleavage is on record?
**A.** The self-cleavage was 0.05.

**Q.** With GGCAGAGCUCAACACAGCAUGGCAAAGUGGCUGUUGCUAGUUUGCC as the variant, how does the self-cleavage read?
**A.** Its self-cleavage is 0.06.

**Q.** Which self-cleavage does the source give for GGCAGAGCUCAACACAGCAUGGCAAAGUGGCUGUUGCUAGACUGGC here?
**A.** The self-cleavage was 0.08.

**Q.** Which self-cleavage does the source give for GGCAGAGCUCAACACAGCAUGGCAAAGUGGCUGUUUCUAGACUCCC here?
**A.** Its self-cleavage is 0.

**Q.** Which self-cleavage does the source give for GGCAGAGCUCAACACAGCAUGGCAAAGUGGCUGUUGCUAGACUACC here?
**A.** Its self-cleavage is 0.15.

**Q.** For GGCAGAGCUCAACACAGCAUGGCAAAGUGGCUGUGGCUACAGUGCC, which self-cleavage is on record?
**A.** The self-cleavage was 0.03.

**Q.** With GGCAGAGCUCAACACAGCAUGGCAAAGUGGCUGUGGCUAGACUCGC as the variant, how does the self-cleavage read?
**A.** Its self-cleavage is 0.06.

**Q.** Which self-cleavage does the source give for GGCAGAGCUCAACACAGCAUGGCAAAGUGGCUGUGGCUAGACUUGC here?
**A.** The self-cleavage was 0.02.

**Q.** For GGCAGAGCUCAACACAGCAGGGCAAAGUGGCUGCGGCUAGACUGCC, which self-cleavage is on record?
**A.** Its self-cleavage is 0.06.

**Q.** Which self-cleavage does the source give for GGCAGAGCUCAACACAGCAUGGCAAAGCGGCUGAGGCUAGACUGCC here?
**A.** Its self-cleavage is 0.07.

**Q.** Which self-cleavage does the source give for GGCAGAGCUCAACACAGCAUGGCAAAGGGGCUGUGGCUAGAUUGCC here?
**A.** The self-cleavage was 0.83.

**Q.** Which self-cleavage does the source give for GGCAGAGCUCAACACAGCAUGGCAAAGGGGCCGUGGCUAGACUGCC here?
**A.** Its self-cleavage is 0.08.

**Q.** With GGCAGAGCUCAACACAGCAUGGCAAAGGGGCCGUGGCUAGGCUGCC as the variant, how does the self-cleavage read?
**A.** The self-cleavage was 0.14.

**Q.** With GGCAGAGCUCAACACAGCAUGGCAAAGUGGCAGUUGCUAGACUGCC as the variant, how does the self-cleavage read?
**A.** Its self-cleavage is 0.06.

**Q.** For GGCAGAGCUCAACACAGCAUGGCAAAGUGGCAGUUGCUAGACUGCU, which self-cleavage is on record?
**A.** Its self-cleavage is 0.05.

**Q.** Which self-cleavage does the source give for GGCAGAGCUCAACACAGCAUGGCAAAGUGGCAGUGGCUAGACUACC here?
**A.** The self-cleavage was 0.11.

**Q.** Which self-cleavage does the source give for GGCAGAGCUCAACACAGCAUGGCAAAGUGGCCGUGGCUAGACUGAC here?
**A.** The self-cleavage was 0.02.

**Q.** For GGCAGAGCUCAACACAGCAUGGCAAAGUGGCCGUGGCUAAACUGCC, which self-cleavage is on record?
**A.** Its self-cleavage is 0.08.

**Q.** With GGCAGAGCUCAACACAGCAUGGCAAAGUGGCCGUGGCUAGACGGCC as the variant, how does the self-cleavage read?
**A.** Its self-cleavage is 0.07.

**Q.** Which self-cleavage does the source give for GGCAGAGCUCAACACAGCAUGGCAAAGUGGCGGUGACUAGACAGCC here?
**A.** Its self-cleavage is 0.06.

**Q.** Which self-cleavage does the source give for GGCAGAGCUCAACACAGCAUGGCAAAGUGGCUGUGGCCAGGCCGCC here?
**A.** The self-cleavage was 0.07.

**Q.** With GGCAGAGCUCAACACAGCCUGGCGAACUGGCUGUGGUUAGACUGCC as the variant, how does the self-cleavage read?
**A.** Its self-cleavage is 0.01.
